# “And” between values parts separate entries of the source, which are not always exact repeats. Equal values may be shown once. Screen size: about 110,000 compounds; about 230 (0.21%) showed an effect of 50% or more. This is one part of the list.
# Biological target: DPAP1 (Plasmodium falciparum, UniProt Q8IIJ9)
# Experiment: primary screen, percent inhibition; read by cleavage of a fluorogenic dipeptide substrate; higher = more effect of the substance
# Design: species or system P. falciparum D10 trophozoite lysates; single well
# 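Further: 30 min substrate incubation versus DMSO and 10 µM JCP410 controls.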
# Chain of DPAP1 (Q8IIJ9 whole entry, looked up): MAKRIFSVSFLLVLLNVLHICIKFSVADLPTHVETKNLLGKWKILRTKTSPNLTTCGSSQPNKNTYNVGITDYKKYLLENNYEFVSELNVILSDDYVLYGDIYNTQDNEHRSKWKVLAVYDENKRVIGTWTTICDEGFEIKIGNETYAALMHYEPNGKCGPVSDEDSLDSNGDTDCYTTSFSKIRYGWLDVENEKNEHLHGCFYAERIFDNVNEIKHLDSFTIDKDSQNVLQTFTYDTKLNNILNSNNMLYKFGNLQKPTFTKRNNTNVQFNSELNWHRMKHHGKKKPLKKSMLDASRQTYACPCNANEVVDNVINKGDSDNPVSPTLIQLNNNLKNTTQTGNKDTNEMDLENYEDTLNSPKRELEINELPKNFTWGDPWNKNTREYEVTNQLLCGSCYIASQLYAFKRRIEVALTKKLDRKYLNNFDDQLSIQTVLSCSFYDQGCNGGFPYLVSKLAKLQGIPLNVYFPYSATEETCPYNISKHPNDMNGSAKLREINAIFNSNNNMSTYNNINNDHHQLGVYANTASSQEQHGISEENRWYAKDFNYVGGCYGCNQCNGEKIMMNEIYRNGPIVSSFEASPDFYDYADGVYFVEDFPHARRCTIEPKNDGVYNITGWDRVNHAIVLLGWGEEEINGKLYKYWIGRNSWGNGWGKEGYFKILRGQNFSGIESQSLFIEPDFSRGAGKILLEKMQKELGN
row,Compound,% Inhibition @ 10 uM
1,Cc1ccnc2nc(NC(=O)C(C)N3C(=O)c4ccccc4C3=O)nn12 (stereo not drawn),-4.91%
2,Cc1c(CNC(=O)c2cnn3c2NC(c2ccc(Br)cc2)CC3C(F)(F)F)cnn1C (stereo not drawn),8.63%
3,Cc1ccc(-n2nc3c(N4CCC(C(=O)N5CCN(C)CC5)CC4)nnc(C)c3c2C)cc1,-7.08%
4,COc1ccc(NCC(O)CN2C(=O)c3ccccc3C2=O)cc1 (stereo not drawn),1.52%
5,CCOC(=O)c1c(NC(=O)c2c(OC)cccc2OC)sc2c1CCC(C)C2 (stereo not drawn),19.7%
6,O=C(O)c1ccc(NCc2cccc(Br)c2)cc1,-0.0619%
7,COc1cc2nc3c(O)n(Cc4ccccc4Cl)cnc-3c2cc1OC,3.24%
8,CN(C)CCN(Cc1ccccc1)C(=O)C1CCN(c2ncnc3c2nc2n3CCCCC2)CC1,-5.56%
9,O=C(Cc1ccc(F)cc1)Nc1nc(-c2ccccc2)cs1,0.931%
10,C=C(C)c1cccc(C(C)(C)NC(=O)NCc2ccc(OC)cc2)c1,-3.96%
11,Cc1c2cnn(CC(=O)N3CC(C)CC(C)C3)c(=O)c2c(C)n1Cc1ccccc1F (stereo not drawn),-7.72%
12,CCn1cc(CCC(=O)NCc2ccccc2C)c2ccccc21,-6.19%
13,CC(CNC(=O)Cn1ncc2c3ccccc3n(C)c2c1=O)c1ccccc1 (stereo not drawn),-11.3%
14,Cc1nn(-c2ccccc2)c2c1N(CC(=O)NC(C)C13CC4CC(CC(C4)C1)C3)C(=O)CS2 (stereo not drawn),-7.3%
15,O=c1oc2ccc([N+](=O)[O-])cc2cc1-c1nc(-c2ccc(Cl)c(Cl)c2)cs1,-4.21%
16,CC(CCc1ccccc1)NC(=O)Cn1ncc2c1-c1ccccc1OC2 (stereo not drawn),-2.42%
17,Cc1ccc(-n2ncc3c(N4CCCC4)ncnc32)cc1Cl,2.24%
18,CC(=O)c1c(NCCc2ccccc2)cc(C)oc1=O,5.42%
19,CNC(=O)c1ccc(-n2c(C)nc3cccnc32)cc1,-0.943%
20,COC(=O)Nc1cc(C)nc2ccccc12,-8.71%
21,O=c1oc2ccccc2n1Cc1ccccc1Cl,-4.6%

row,Compound,% Inhibition @ 10 uM
1,CC(=O)c1ccc(NC(=O)CCc2ccccc2)cc1,-1.98%
2,O=C(NC1CCCCC1)c1nc2nc(-c3ccccc3)cc(C(F)(F)F)n2n1,0.0035%
3,O=c1c2c(nc3n1CCS3)-c1ccccc1CC21CCCC1,1.8%
4,CCOc1ccccc1C(=O)Nc1cc(C)on1,-4.59%
5,COC(=O)c1sc(N2C(=O)c3oc4ccccc4c(=O)c3C2c2cccnc2)nc1C (stereo not drawn),-2.92%
6,CN1CCN(c2nc3nonc3nc2N2CCN(C)CC2)CC1,9.21%
7,CCCC1=NN2C(=N)/C(=C/c3ccc(-c4ccccc4)o3)C(=O)N=C2S1,0.47%
8,Cc1nc2ccccc2n1CC(=O)NCCCn1ccnc1,-2.19%
9,Cc1ccc(NC(=O)Nc2nc3c(s2)CC(C)CC3)cc1 (stereo not drawn),0.674% and 2.64%
10,CN1CCN(C(=O)C2CCN(S(=O)(=O)N3CCC4(CC3)OCCO4)CC2)CC1,-4.83%
11,N#C/C(=C\c1cccc2ccccc12)c1nn(CCO)c(N)c1C#N,22.6%
12,Cc1ccccc1C(=O)Nc1ccc(C#N)cc1,-2.63%
13,O=S(=O)(c1ccc(F)cc1)N1CCC(Cc2ccccc2)CC1,8.31%
14,Cc1nnc(NC(=O)c2ccc(S(=O)(=O)N3CC(C)CC(C)C3)cc2)o1 (stereo not drawn),2.84%
15,CC(=O)c1cccc(C(=O)N[C@@H](CC2CCCCC2)C(=O)NCC#N)c1,-1.83%
16,Cc1ccc(O)c(C(=O)c2cnc3c(c2)COc2ccc(C)cc2-3)c1,0.889%
17,Nc1nc(COc2ccc(F)cc2)nc(N2CCCCC2)n1,3.81%
18,Cc1cc(O)c(NC(=O)c2ccc3c(c2)OCCO3)cc1C,-11.5%
19,CCN(CC)c1nc2c(-c3ccc(Cl)cc3)nnn2c2ccccc12,-1.21%
20,Cc1onc(-c2ccccc2)c1C(=O)N1N=C(C(F)F)CC1(O)C(F)F (stereo not drawn),2.08%
21,Cc1cc2nc(-c3cc(N)ccc3Cl)oc2cc1C,3.65%

row,Compound,% Inhibition @ 10 uM
1,CC1=C(C#N)C(C(F)(F)F)(C(F)(F)F)NC(c2ccc(C)cc2)=N1,-3.53%
2,O=c1c(-c2ccccc2)c(O)cc(-c2ccccc2)n1Cc1ccccc1,0.674%
3,COCCNC(=O)c1ccc(CSCc2cccc(Cl)c2)o1,2.35%
4,CCCCN1C(=O)C(Nc2nc3ccccc3s2)(C(F)(F)F)C2=C1CC(C)(C)CC2=O (stereo not drawn),1.91%
5,COC(=O)c1sc2ccccc2c1NC(=O)c1nc2ccccc2s1,4.67%
6,CSC1=NSC2=NC(=O)/C(=C\c3ccc(SCc4ccco4)o3)C(=N)N12,5.34%
7,Cc1cc(C(F)F)n2nc(C(=O)Nc3cc(Cl)ccc3O)nc2n1,-1.32%
8,COc1ccc(-c2nc3n(n2)C(c2cccs2)C(C(=O)Nc2cccnc2)=C(C)N3)cc1 (stereo not drawn),1.96%
9,COC(=O)c1c(NC(=O)Cn2nc(C(F)(F)F)c(Br)c2C)sc2c1CCCC2,8.94%
10,CCCN(CC1CC1)C1CCN(Cc2ccccc2)CC1,3.68%
11,CN(C)C(=O)c1c(NC(=O)c2ccccc2F)sc2c1CCC(C(C)(C)C)C2 (stereo not drawn),-5.63%
12,O=C(CC1(O)C(=O)Nc2ccccc21)c1cccc(Br)c1 (stereo not drawn),-10.1%
13,COc1ccc(C2=N/C(=C\c3c(F)cccc3Cl)C(=O)O2)cc1,2.75%
14,COc1ccc(N(CC(=O)NC(C)(C)C)S(=O)(=O)c2ccc(C)cc2)c(OC)c1,-0.185%
15,COC(=O)C1=CN(C)C=C(C(=O)OC)C1c1ccc2c(c1)OCO2,-1.48%
16,CCN(Cc1ccccc1)S(=O)(=O)c1nnc(NC(=O)c2ccc(OC)c(OC)c2)s1,-1.91%
17,CS(=O)(=O)N(CC(=O)N1CCc2ccccc2C1)c1cccc(Cl)c1Cl,-5.54%
18,O=C1N=C(N2CCOCC2)S/C1=C\c1ccc(Cl)cc1Cl,3.53%
19,CN(CC(=O)NC1CCN(Cc2ccccc2)CC1)S(=O)(=O)c1ccc(Br)s1,-2.56%
20,CC1=C(C(=O)Nc2ccc(F)cc2F)C(c2cccs2)C2=C(O)CCCC2=N1 (stereo not drawn),-1.64%
21,COc1ccc(CCNC(=O)CCc2c(C)nc3nc(CN)nn3c2C)cc1OC,-3.96%

# — article PMC6919601, “Identification of Plasmodium dipeptidyl aminopeptidase allosteric inhibitors by high throughput screening” (PLoS ONE, 2019)
